Measurements reported in the supplement of paper PMC9151546.
Single values are uncertain, as repeats are few or missing.

Experiments:
CHO-K1 [1] = test: hypodiploid nuclei frequency (% of nucleated events); higher = more hypodiploid events (aneugenic)
Experimental: (§1)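 Flow-cytometric in vitro micronucleus assay (Litron MicroFlow) in CHO-K1 cells in 96-well plates, 19 concentrations (4.5-200 µM, n=1 per concentration). Without S9, cells were exposed for 24 h and sampled at 48 h. With Aroclor 1254-induced rat liver S9, cells were exposed for 3-4 h and sampled at 27-28 h. Read-outs are %MN and %hypodiploid nuclei relative to nucleated events, and relative survival as the nuclei-to-bead ratio versus the 1% DMSO vehicle control (x100).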

CHO-K1 [2] = test: micronucleus frequency (% of nucleated events); higher = more micronuclei (genotoxic)
CHO-K1 [3] = test: relative survival (nuclei to bead ratio vs DMSO control) (% of vehicle control); higher = more surviving cells
Experimental: as §1
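For hypodiploid nuclei frequency (% of nucleated events) in this document: hypodiploid nuclei gated on a flow cytometer with 488 nm excitation after SYTOX Green staining, cultures at 37 °C, positive controls vinblastine without S9 and cyclophosphamide with S9.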
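For micronucleus frequency (% of nucleated events) in this document: cells lysed with nuclei stained by SYTOX Green, then micronucleus-gated events counted against nucleated events by flow cytometry with 488 nm excitation.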
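For relative survival (nuclei to bead ratio vs DMSO control) in this document: Lysed-cell nuclei stained with SYTOX Green and counted against counting beads by flow cytometry at 488 nm excitation, with vinblastine (no S9) and cyclophosphamide (plus S9) as positive controls.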

CC(C)(c1ccc(O)cc1)c1ccc(O)cc1 [Bisphenol A]
Settings	hypodiploid nuclei frequency, CHO-K1 [1] [%]	micronucleus frequency, CHO-K1 [2] [%]	relative survival, CHO-K1 [3]
concentration: 4.5 (µM), S9 metabolic activation: with S9, exposure time: 3-4 hours	0.26	0.74	154
concentration: 4.5 (µM), S9 metabolic activation: without S9, exposure time: 24 hours	0.52	1.78	137
concentration: 5.63 (µM), S9 metabolic activation: with S9, exposure time: 3-4 hours	0.26	1.08	142
concentration: 5.63 (µM), S9 metabolic activation: without S9, exposure time: 24 hours	0.54	2.08	127
concentration: 7.04 (µM), S9 metabolic activation: with S9, exposure time: 3-4 hours	0.28	0.98	153
concentration: 7.04 (µM), S9 metabolic activation: without S9, exposure time: 24 hours	0.62	1.18	141
concentration: 8.8 (µM), S9 metabolic activation: with S9, exposure time: 3-4 hours	0.16	1.08	111
concentration: 8.8 (µM), S9 metabolic activation: without S9, exposure time: 24 hours	0.38	1.32	143
concentration: 11 (µM), S9 metabolic activation: with S9, exposure time: 3-4 hours	0.16	0.92	114
concentration: 11 (µM), S9 metabolic activation: without S9, exposure time: 24 hours	0.56	1.58	130
concentration: 13.7 (µM), S9 metabolic activation: with S9, exposure time: 3-4 hours	0.2	1.3	128
concentration: 13.7 (µM), S9 metabolic activation: without S9, exposure time: 24 hours	0.74	1.72	118
concentration: 17.2 (µM), S9 metabolic activation: with S9, exposure time: 3-4 hours	0.18	1.02	121
concentration: 17.2 (µM), S9 metabolic activation: without S9, exposure time: 24 hours	0.7	1.44	116
concentration: 21.5 (µM), S9 metabolic activation: with S9, exposure time: 3-4 hours	0.2	1.08	121
concentration: 21.5 (µM), S9 metabolic activation: without S9, exposure time: 24 hours	0.62	1.62	111
concentration: 26.8 (µM), S9 metabolic activation: with S9, exposure time: 3-4 hours	0.26	1.1	181
concentration: 26.8 (µM), S9 metabolic activation: without S9, exposure time: 24 hours	0.7	1.36	108
concentration: 33.6 (µM), S9 metabolic activation: with S9, exposure time: 3-4 hours	0.22	2	155
concentration: 33.6 (µM), S9 metabolic activation: without S9, exposure time: 24 hours	0.7	1.36	113
concentration: 41.9 (µM), S9 metabolic activation: with S9, exposure time: 3-4 hours	0.18	1.22	123
concentration: 41.9 (µM), S9 metabolic activation: without S9, exposure time: 24 hours	0.84	2.52	97.8
concentration: 52.4 (µM), S9 metabolic activation: with S9, exposure time: 3-4 hours	0.26	0.94	119
concentration: 52.4 (µM), S9 metabolic activation: without S9, exposure time: 24 hours	0.84	1.5	107
concentration: 65.5 (µM), S9 metabolic activation: with S9, exposure time: 3-4 hours	0.42	1.52	101
concentration: 65.5 (µM), S9 metabolic activation: without S9, exposure time: 24 hours	1.18	1.74	101
concentration: 81.9 (µM), S9 metabolic activation: with S9, exposure time: 3-4 hours	0.26	2.38	80.9
concentration: 81.9 (µM), S9 metabolic activation: without S9, exposure time: 24 hours	1.72	1.86	101
concentration: 102 (µM), S9 metabolic activation: with S9, exposure time: 3-4 hours	0.34	1.6	112
concentration: 102 (µM), S9 metabolic activation: without S9, exposure time: 24 hours	1.78	3.62	84.6
concentration: 128 (µM), S9 metabolic activation: with S9, exposure time: 3-4 hours	0.32	1.64	89.7
concentration: 128 (µM), S9 metabolic activation: without S9, exposure time: 24 hours	2.58	4.52	80.3
concentration: 160 (µM), S9 metabolic activation: with S9, exposure time: 3-4 hours	0.29	1.37	83.2
concentration: 160 (µM), S9 metabolic activation: without S9, exposure time: 24 hours	5.66	9.02	55.1
concentration: 200 (µM), S9 metabolic activation: with S9, exposure time: 3-4 hours	0.21	1.45	74.6
concentration: 200 (µM), S9 metabolic activation: without S9, exposure time: 24 hours	4.18	7.68	51.9
